Data reported in paper PMC7819943, “Rice protein-binding microarrays: a tool to detect cis-acting elements near promoter regions in rice”.
Some of the results follow.

biological target: T1, OsWOX13 (Oryza sativa, UniProt Q5QMM3 1-267); assay: protein-binding microarray (RPBM); PBS, 2% BSA, 51.3 ng/ul salmon testes DNA, 50 uM zinc acetate, 200 nM TF, 25 C, 1 h; high values mean tight binding; conditions: protein: recombinant; tags: N-terminal polyhistidine and DsRed monomer fusion (pET32a); label: CyDye5-dUTP incorporated in the synthesized complementary strand; 3' TTTTT single-stranded linker to array surface; dsDNA, one strand shown
T1 sequence: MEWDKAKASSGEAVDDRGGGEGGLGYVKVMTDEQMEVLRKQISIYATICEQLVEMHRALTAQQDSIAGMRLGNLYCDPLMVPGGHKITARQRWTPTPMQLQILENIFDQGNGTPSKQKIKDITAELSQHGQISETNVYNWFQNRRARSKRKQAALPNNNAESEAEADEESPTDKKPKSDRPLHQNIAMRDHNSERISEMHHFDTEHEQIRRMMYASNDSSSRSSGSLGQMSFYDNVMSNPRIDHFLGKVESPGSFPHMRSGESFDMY
Method in brief: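 Binding signal here means per-feature fluorescence intensity in arbitrary units. The values were read on an Axon 4000B scanner after a custom Agilent array, double-stranded by primer extension with Cy5-dUTP, was incubated with 200 nM protein at 25 °C for 1 h in PBS with 2% BSA, salmon testes DNA and 50 µM zinc acetate, then washed. The proteins were transcription factors with an N-terminal polyhistidine tag and DsRed, expressed in E. coli BL21-CodonPlus and purified on Ni–NTA.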

| Sequence | binding signal |
| --- | --- |
| GTATGAATTGGTTATTACATTTGCTATAGATAATTTGGAGCGGAGTCACCTAGTGCAG | 3970 fluorescence intensity (a.u.) |
| TCTAGATTACCCTTCTATTAGTGAGACATTGTTATAGTGCCGGAGTCACCTAGTGCAG | 10100 fluorescence intensity (a.u.) |
| CTGGGATTAAAATTAGACATGTTTAACTTAGGCGAAGCTACGGAGTCACCTAGTGCAG | 28600 fluorescence intensity (a.u.) |
| AATTCCACTCACTCATCACTTAATTTGCTAGCTAGTAGCTCGGAGTCACCTAGTGCAG | 6770 fluorescence intensity (a.u.) |
| GGACTGATTTGCCTTTGCCCTTGCCGGCGCAGTCCAACCACGGAGTCACCTAGTGCAG | 13200 fluorescence intensity (a.u.) |
| GAAAATAGATAACTTCAGTCTTCAGATGACAAGTAGTACACGGAGTCACCTAGTGCAG | 5170 fluorescence intensity (a.u.) |
| AATGATTTATATCGTGAAACAGATGAAGTACTATATAGAACGGAGTCACCTAGTGCAG | 12600 fluorescence intensity (a.u.) |
| TGTAACAAACAGGCTGTAACGGCACCGTAATAAACCCAACCGGAGTCACCTAGTGCAG | 6570 fluorescence intensity (a.u.) |
| TTGATTTAGTCCATTTAATGAATGGTGCGTCACACTAAAACGGAGTCACCTAGTGCAG | 7190 fluorescence intensity (a.u.) |
| GCGGTTGACTTAATAGAGGGGCTATTCATATTGATGTTAACGGAGTCACCTAGTGCAG | 4480 fluorescence intensity (a.u.) |
| ATAATTAATAATTAAAATTCATGTATTCGCTCTATATCTTCGGAGTCACCTAGTGCAG | 19200 fluorescence intensity (a.u.) |
| TACTGTCGGTTAATTGCCAACTTGTGCTCTCTCCTCATTTCGGAGTCACCTAGTGCAG | 3230 fluorescence intensity (a.u.) |
| TTCAATTAAGGGGCAATTACAAATTTACCAATGTTTTGAACGGAGTCACCTAGTGCAG | 21800 fluorescence intensity (a.u.) |
| CTTGATTATTTTAGGCTAATTCTGAATTGCGTGGGAGCTCCGGAGTCACCTAGTGCAG | 33800 fluorescence intensity (a.u.) |
| TTAGACAATTATACTATAAGTTTACTTTACTGCCATTGGGCGGAGTCACCTAGTGCAG | 3780 fluorescence intensity (a.u.) |
| TTGATTGAAAACCCACGCATCCTCCTCCTTCCCATTGCGCCGGAGTCACCTAGTGCAG | 50500 fluorescence intensity (a.u.) |
| GGTATAGTTATTGGTTTGATTTATAATATAAAGGTATTTGCGGAGTCACCTAGTGCAG | 11200 fluorescence intensity (a.u.) |
| CATTTGCGTGCCTGATTAATCCTCTCGTCATCTCACCTCACGGAGTCACCTAGTGCAG | 3650 fluorescence intensity (a.u.) |
| TTTGACATACATTTATATGTGGGTTCCTCTAGATCTCTGTCGGAGTCACCTAGTGCAG | 8800 fluorescence intensity (a.u.) |
| AATGATGGATTTGAAGGGCAGACGGAGTGCAAAAGTAAAACGGAGTCACCTAGTGCAG | 3180 fluorescence intensity (a.u.) |
| AGTTAATTAAAATACACTGAATGGTGGGCTGTGGGTGCATCGGAGTCACCTAGTGCAG | 36800 fluorescence intensity (a.u.) |

| Sequence | binding signal |
| --- | --- |
| CCTATCATTTGATTTATTATTAAATATACTTTTATATAGTCGGAGTCACCTAGTGCAG | 14900 fluorescence intensity (a.u.) |
| ATGACTGACATGTGGATCCACTGGCACGTAAGCGTTACCGCGGAGTCACCTAGTGCAG | 4700 fluorescence intensity (a.u.) |
| TAAATTCTTGATTAAACTCAACTTCTTGTATTTACTGTTGCGGAGTCACCTAGTGCAG | 10800 fluorescence intensity (a.u.) |
| CCATAATCACGATGGGCCAGGAAATCAAACTAACTTTCCACGGAGTCACCTAGTGCAG | 3900 fluorescence intensity (a.u.) |
| CCCTCCGGTTTTATTTTAATTAACGTTTTGGACAATGACACGGAGTCACCTAGTGCAG | 4010 fluorescence intensity (a.u.) |
| AAACAATCAACCGAAACTATGAGGAGAACCAGATGATTCGCGGAGTCACCTAGTGCAG | 3610 fluorescence intensity (a.u.) |
| ACATCAATTTCGTGTTATTAGCAAGCAACTAAGCAAGACGCGGAGTCACCTAGTGCAG | 4100 fluorescence intensity (a.u.) |
| CCTCGATACATGTCAATCTCTACTACCATATTGAATAACTCGGAGTCACCTAGTGCAG | 4190 fluorescence intensity (a.u.) |
| AAATTAAATGGCGAAGTGATTCGACTATTTAGTTCTCTCTCGGAGTCACCTAGTGCAG | 3570 fluorescence intensity (a.u.) |
| GTAACGTTAATTGTTATGCATGTTATATCACTAGATTTATCGGAGTCACCTAGTGCAG | 15800 fluorescence intensity (a.u.) |
| ATTCCTCCTCAATTAGTCATTCACTACATACATACAGCAACGGAGTCACCTAGTGCAG | 5100 fluorescence intensity (a.u.) |
| AGACCAATCAAACAGCCATGACGAGGCTAGTTCAGATCACCGGAGTCACCTAGTGCAG | 26200 fluorescence intensity (a.u.) |
| GTGCTAATTAACTGGTCACGACTCACGAGGATAACCGTGTCGGAGTCACCTAGTGCAG | 36200 fluorescence intensity (a.u.) |
| ATAAACTGGAACAGAAGGCCAGGCGGAAATAAACTGGACACGGAGTCACCTAGTGCAG | 6490 fluorescence intensity (a.u.) |
| TACCGATGATAATTTCCAACCGTAAACCGTAAACCGATCACGGAGTCACCTAGTGCAG | 4390 fluorescence intensity (a.u.) |
| GTTAACATACAAAATTTTGGTAGTTTTGAGATCTCCCACCCGGAGTCACCTAGTGCAG | 5280 fluorescence intensity (a.u.) |
| CATTGAATTGAAAATTTGACATATGAGATTTGTCTACGTCCGGAGTCACCTAGTGCAG | 18000 fluorescence intensity (a.u.) |
| CGCTAATTATCTAAAATAATTCGTGCAAGATAAAATGATGCGGAGTCACCTAGTGCAG | 32600 fluorescence intensity (a.u.) |
| ATGATTTTGAGTAACGCGACAATTGAGAGTTGTTTATAGTCGGAGTCACCTAGTGCAG | 9680 fluorescence intensity (a.u.) |
| CAGTTTAACTGAGTGATAAATAGATAATAGTCAAAGGGAACGGAGTCACCTAGTGCAG | 13500 fluorescence intensity (a.u.) |
| CGTGTAAATTACGAGACAAATCTTTTAAGCCTAATTGTGCCGGAGTCACCTAGTGCAG | 13700 fluorescence intensity (a.u.) |
